From patent US12060387B2, “Polypeptide-based shuttle agents for improving the transduction efficiency of polypeptide cargos to the cytosol of target eukaryotic cells, uses thereof, methods and kits relating to same” (priority 2015, dated 2024)
Where two headings read alike, the source gives them in different places. For part of these data: Part of at least one peptide drawing is inferred or uncertain, most often the ends. Some entries repeat one wording, which the source may state once for all of them. For part of these data: At least one structure is not confirmed: it was looked up by name or label, or the drawing left a doubt. Some results were stated once for a whole list of compounds, not compound by compound. Bridges are numbered along the chain shown (N, C = ends). Roman numbers before positions name the chains, in order. Where no end group is shown, it is not given here.

What was measured:
[1] = system: HeLa cells; format: cell-based, Human; details: for escape of endosomally-trapped calcein (mean cellular calcein fluorescence intensity v. controls): summary of Tables 2.1 and 2.2, 5 μM
Procedure: (§1) In addition to microscopy, flow cytometry allows a more quantitative analysis of the endosomal leakage as the fluorescence intensity signal increases once the calcein is released in the cytoplasm. Calcein fluorescence is optimal at physiological pH (e.g., in the cytosol), as compared to the acidic environment of the endosome.
(§2) The cells were allowed to attach by incubating overnight in appropriate growth media, as described in Example 1. The next day, the media in wells was removed and replaced with 50 μL of fresh media without serum containing 62.5 μg/mL (100 μM) of calcein, except for HEK293A (250 μg/mL, 400 μM). At the same time, the shuttle agent(s) to be tested was added at a predetermined concentration. The plate was incubated at 37° C. for 30 minutes. The cells were washed with 1×PBS (37° C.) and fresh media containing 5-10% serum was added. The plate was incubated at 37° C. for 2.5 hours. The cells were washed with 1×PBS and detached using trypsinization.
(§3) Untreated calcein-loaded cells were used as a control to distinguish cells having a baseline of fluorescence due to endosomally-trapped calcein from cells having increased fluorescence due to release of calcein from endosomes. Fluorescence signal means (“mean counts”) were analyzed for endosomal escape quantification. In some cases, the “Mean Factor” was calculated, which corresponds to the fold-increase of the mean counts relative to control (untreated calcein-loaded cells). […] The cellular mortality was monitored with the percentage of cells in the total events scanned. When it became lower than the control, it was considered that the number of cellular debris was increasing due to toxicity and the assay was discarded.
HeLa cells were cultured and tested in the endosomal escape assays as described in Example 2.1. In each case, the flow cytometry results were also confirmed by fluorescence microscopy (data not shown).

[2] = system: primary myoblasts; assay: Calcein endosomal escape assay, quantification by flow cytometry; format: cell-based, Human; details: primary myoblasts; for Mean counts: Table 2.11; for Mean Factor: factor v. no peptide
Procedure: as §1, §2, §3
To examine the effects of the shuttle agents on primary cells, primary myoblast cells were cultured and tested in the endosomal escape assays as described in Example 2.1. The results of flow cytometry analyses are summarized below in Tables 2.9 and 2.10, and in FIG. 4. In each case, the flow cytometry results were also confirmed by fluorescence microscopy.

[3] = system: HeLa cells; assay: GFP transduction efficiency, flow cytometry (% GFP-positive cells); format: cell-based, Human; details: GFP 5 μM, 1 hour; for Mean (%) (n = 3), FIG. 8 / Mean (%) (n = 3), FIG. 9: shuttle 3 μM
Procedure: GFP, GFP-NLS and TAT-GFP are recombinant proteins developed and produced by Feldan (see Example 3.4 below).
Briefly, GFP recombinant protein was co-incubated with different concentrations of CM18-TAT-Cys or dimerized CM18-TAT-Cys (dCM18-TAT-Cys), and then exposed to HeLa cells for 1 hour.
Briefly, GFP recombinant protein (5 μM) was co-incubated with different concentrations and combinations of CM18-TAT-Cys, CM18-Penetratin-Cys, and dimers of each (dCM18-TAT-Cys, dCM18-Penetratin-Cys), and then exposed to HeLa cells for 1 hour. […] The results are shown in Table 3.3 and FIG. 8, as well as in Table 3.4 and FIG. 9.

[4] = system: HeLa cells; assay: GFP-NLS transduction efficiency, flow cytometry (Pos cells %, relative fluorescence intensity FL1-A); format: cell-based, Human; details: for GFP-NLS transduction efficiency / intracellular delivery (in words): Tables 5.2, 5.3, FIGS. 14, 15
[5] = system: HeLa cells; assay: FITC-labeled anti-tubulin antibody transduction efficiency, flow cytometry; format: cell-based, Human; details: antibody 0.5 μM, 1 hour; for Mean (%) (n = 3), FIG. 19A: shuttle 3.5 μM
[6] = system: HeLa cells; format: cell-based, Human; details: HeLa; GFP 5 μM with 5 μM of each peptide; 1 hour
[7] = system: HeLa cells; assay: GFP-NLS transduction and nuclear delivery, fluorescence microscopy; format: cell-based, Human; details: GFP-NLS 5 μM with 5 μM shuttle, 1 hour
[8] = system: HeLa cells; assay: Cell toxicity / % cell viability by flow cytometry (cells in total events v. untreated); format: cell-based, Human; details: Protocol B, shuttle 20 μM, GFP-NLS 5 μM, 1 minute
[9] = system: THP-1 cells; assay: HOXB4-WT transduction, real-time PCR of target gene mRNA (Fold over control); format: cell-based, human
Procedure: Control and treated cells are transferred to separate sterile 1.5-mL tubes and centrifuged for 5 minutes at 300 g. The cell pellets are resuspended in appropriate buffer to lyse the cells. RNAase-free 70% ethanol is then added followed by mixing by pipetting. The lysates are transferred to an RNeasy™ Mini spin column and centrifuged 30 seconds at 13000 RPM. After several washes with appropriate buffers and centrifugation steps, the eluates are collected in sterile 1.5-mL tubes on ice, and the RNA quantity in each tube is then quantified with a spectrophotometer. For DNase treatment, 2 μg of RNA is diluted in 15 μL of RNase-free water. 1.75 μL of 10× DNase buffer and 0.75 μL of DNase is then added, followed by incubation at 37° C. for 15 minutes. For reverse transcriptase treatment, 0.88 μL of EDTA ([…]) is added, followed by incubation at 75° C. for 5 minutes. In a PCR tube, 0.5 μg of DNase-treated RNA is mixed with 4 μL of iScript™ Reverse transcription Supermix (5×) and […] of nuclease-free water. The mix is incubated in a PCR machine with the following program: 5 min at 25° C., 30 min at 42° C. and 5 min at 85° C. Newly synthesized cDNA is transferred in sterile 1.5-mL tubes and diluted in 2 μL of nuclease-free water. 18 μL per well of a qPCR machine (CFX-96™) mix is then added in a PCR plate for analysis.
Briefly, THP-1 cells were plated at 30 000 cells/well one day before transduction. HOXB4-WT recombinant protein (0.3, 0.9, or 1.5 μM; Example 14.1) was co-incubated with different concentrations of His-CM18-PTD4 ([…], 0.8 or 1 μM) and then exposed to THP-1 cells for 2.5 hours in the presence of serum. The cells were subjected to real time-PCR analysis as described in Example 14.2 to measure the mRNA levels of a target gene as a marker for HOXB4 activity, which was then normalized to the target gene mRNA levels detected in the negative control cells (no treatment), to obtain a “Fold over control” value. Total RNA levels (ng/μL) were also measured as a marker for cell viability.
Briefly, THP-1 cells were plated at 30 000 cells/well one day before the first time course experiment. […] The cells were subjected to real time-PCR analysis as described in Example 14.2 to measure mRNA levels of a target gene as a marker for HOXB4 activity, which was then normalized to the target gene mRNA levels detected in the negative control cells (no treatment), to obtain a “Fold over control” value. Total RNA levels (ng/μL) were also measured as a marker for cell viability.
Briefly, THP-1 cells were plated at 30 000 cells/well one day before the first time course experiment. […] The cells were subjected to real time-PCR analysis as described in Example 14.2 to measure mRNA levels of a target gene as a marker for HOXB4 activity, which was then normalized to target gene mRNA levels detected in the negative control cells (no treatment), to obtain a “Fold over control” value. Total RNA levels (ng/μL) were also measured as a marker for cell viability.
Briefly, THP-1 cells were plated at 30 000 cells/well one day before the first time course experiment. […] The cells were subjected to real time-PCR analysis as described in Example 14.2 to measure mRNA levels of a target gene as a marker for HOXB4 activity, which was then normalized to target gene mRNA levels detected in the negative control cells (no treatment), to obtain a “Fold over control” value. […]

[10] = GFP-NLS 5 μM, shuttle 3 μM, 1 hour
[11] = Table 2.1, HeLa, peptide 5 μM, fold-increase of mean counts v. untreated calcein-loaded cells
[12] = Table 2.5 (FIG. 3), HeLa, peptide 5 μM
[13] = Table 2.5 (FIG. 3), HeLa, peptide 8 μM
[14] = Protocol B, shuttle 50 μM, GFP-NLS 5 μM, 10 seconds

Substance: I: KWKLFKKIGAVLKVLTTGRQIKIWFQNRRMKWKKC / II: KWKLFKKIGAVLKVLTTGRQIKIWFQNRRMKWKKC (disulfide I:35-II:35) [dCM18-Penetratin-Cys]
- Mean Factor ([1]; Table 2.6, HeLa, dimer 2 μM): 2.1
- Mean counts (n = 4) ([1]; Table 2.6, HeLa, dimer 2 μM): 128 363
- Mean counts ([2]; peptide 2.5 μM): 71 547
- Mean Factor ([2]; peptide 2.5 μM): 2.4
- GFP transduction efficiency / intracellular delivery (in words) ([3]; Table 3.3 and FIG. 8): no GFP intracellular delivery was observed
- GFP transduction efficiency / intracellular delivery (in words) ([3]; Table 3.4 and FIG. 9): no GFP intracellular delivery was observed
- Mean (%) (n = 3), FIG. 8 [3]: 0.73%
- Mean (%) (n = 3), FIG. 9 [3]: 0.92%
- GFP-NLS transduction efficiency / intracellular delivery (in words) ([4]; GFP-NLS 5 μM, 1 hour): no GFP-NLS intracellular delivery was observed
- effect on GFP-NLS transduction efficiency of adding the dimer to CM18-TAT-Cys ([4]; GFP-NLS 5 μM, dimer 1 μM added to CM18-TAT-Cys 3.5 μM, Table 5.4, FIG. 16): improved GFP-NLS transduction efficiency
- Mean (%) (n = 3), FIG. 14 [4, 10]: 0.85%
- Mean (%) (n = 3), FIG. 15 [4, 10]: 0.84%
- Mean (%) (n = 3), FIG. 19A [5]: 50.23%

Substance: KWKLFKKIGAVLKVLTTG [CM18, reference compound]
- escape of endosomally-trapped calcein (mean cellular calcein fluorescence intensity v. controls) ([1]; HeLa): do not
- Mean Factor [1, 11]: 0.8
- GFP intracellular delivery (microscopy, data not shown) [6]: not successfully delivered intracellularly
- GFP-NLS transduction by single-domain or His-CPD peptides (in words) ([4]; GFP-NLS 5 μM with 50 μM peptide, 10 seconds, Protocol B, Table 10.4): not able to successfully transduce GFP-NLS
- Mean % cells with GFP signal (±St. Dev.; n = 3), FIG. 29D ([4]; Protocol B, peptide 50 μM, GFP-NLS 5 μM, 10 seconds): 2.9 ± 0.2%

Substance: KWKLFKKIGAVLKVLTTGRQIKIWFQNRRMKWKKC [CM18-Penetratin-Cys]
- concentrations associated with an increase in cell toxicity ([1]; HeLa cells, in some cases): above 10 μM
- escape of endosomally-trapped calcein, dose dependence ([1]; HeLa, Tables 2.3, 2.4, 2.5): dose-dependent manner
- escape of endosomally-trapped calcein (mean cellular calcein fluorescence intensity v. controls) ([1]; HeLa): increased mean cellular calcein fluorescence intensity
- Mean Factor [1, 11]: 4.7
- Mean Factor [1, 12]: 2.2
- Mean counts (n = 3) [1, 12]: 134 506
- Mean Factor [1, 13]: 2.8
- Mean counts (n = 3) [1, 13]: 174 233
- Mean Factor ([1]; Table 2.6, HeLa, monomer 4 μM): 1.9
- Mean counts (n = 4) ([1]; Table 2.6, HeLa, monomer 4 μM): 116 873
- Mean counts ([2]; peptide 5 μM): 65 636
- Mean Factor ([2]; peptide 5 μM): 2.2
- GFP transduction efficiency / intracellular delivery (in words) ([3]; Table 3.3 and FIG. 8): no GFP intracellular delivery was observed
- GFP transduction efficiency / intracellular delivery (in words) ([3]; Table 3.4 and FIG. 9): no GFP intracellular delivery was observed
- Mean (%) (n = 3), FIG. 8 [3]: 0.59%
- Mean (%) (n = 3), FIG. 9 [3]: 0.81%
- GFP-NLS transduction efficiency / intracellular delivery (in words) ([4]; GFP-NLS 5 μM, 1 hour): no GFP-NLS intracellular delivery was observed
- Mean (%) (n = 3), FIG. 14 [4, 10]: 0.43%
- Mean (%) (n = 3), FIG. 15 [4, 10]: 0.68%
- intracellular delivery of FITC-labeled anti-tubulin antibody (in words) ([5]; shuttle 3.5 μM (combination 3.5 + 0.5 μM), Table 6.1): facilitate intracellular delivery of an FITC-labeled anti-tubulin antibody
- Mean (%) (n = 3), FIG. 19A [5]: 53.05%

Substance: HHHHHHKWKLFKKIGAVLKVLTTGYGRKKRRQRRR [His-CM18-TAT]
- Mean (%) cell with GFP signal (n = 3), FIG. 21A ([4]; GFP-NLS 5 μM, shuttle 1 μM, 1 hour): 8.45%
- Mean (%) cell with GFP signal (n = 3), FIG. 21A [4, 10]: 29.58%
- Mean (%) cell with GFP signal (n = 3), FIG. 21A ([4]; GFP-NLS 5 μM, shuttle 5 μM, 1 hour): 41.38%
- Mean % cells with GFP signal (±St. Dev.; n = 3), FIG. 29A [4, 14]: 55.5 ± 3.6%
- Mean % cells with GFP signal (±St. Dev.; n = 3), FIG. 29E [4, 14]: 55.5 ± 3.6%
- increase of GFP-NLS protein transduction efficiency as compared to CM18-TAT-Cys ([4]; at 3 μM and 5 μM, GFP-NLS 5 μM, 1 hour, Table 8.1): about 2 fold
- nuclear fluorescence of delivered GFP-NLS (microscopy, data not shown) [7]: Nuclear fluorescence of intracellularly delivered GFP-NLS was confirmed

Substance: KWKLFKKIGAVLKVLTTGGGSGGGSGGGSGYARAAARQARA [CM18-L3-PTD4]
- Cell viability (%) (±St. Dev.; n = 3), FIG. 29I [8]: 71.9 ± 6.0%

Substance: HHHHHHKWKLFKKIGAVLKVLTTGYARAAARQARA [His-CM18-PTD4 alone]
- Fold over control (mean ± St. Dev) ([9]; Table 14.1, shuttle 1 μM, HOXB4-WT 0 μM, 2.5 hours with serum): 2.7 ± 0.3
- Fold over control (mean ± St. Dev) ([9]; Table 14.2, shuttle 0.8 μM, HOXB4-WT 0 μM, exposure time 2.5 h, serum): 1.2 ± 0.14
- Fold over control (mean ± St. Dev) ([9]; Table 14.3, shuttle 0 μM, HOXB4-WT 0.3 μM, exposure time 2.5 h, serum): 2.5 ± 0.2
- Fold over control (mean ± St. Dev) ([9]; Table 14.4, shuttle 0 μM, HOXB4-WT 1.5 μM, exposure time 2.5 h, serum): 2.5 ± 0.3
